Laboratory results taken from PMC7347597, “INTS10–INTS13–INTS14 form a functional module of Integrator that binds nucleic acids and the cleavage module” (Nature Communications, 2020).
Results are given in words; binding and its absence hold for the method and conditions named. For some of these results: Binding seen in cells or lysates may run through a third protein. Some binding calls cover weakened binding; strength is not graded here. Each block holds one substance with its values, some of them ahead of it.

Sequences of proteins named here, by UniProt entry; tags and fusion partners are left off. A change or cut given only in a name is not applied to a line headed by its entry. A line that says so, or that is headed by a name, gives the form on record, which may keep a tag or linker. Residues count along the entry.
UniProt Q9NVM9: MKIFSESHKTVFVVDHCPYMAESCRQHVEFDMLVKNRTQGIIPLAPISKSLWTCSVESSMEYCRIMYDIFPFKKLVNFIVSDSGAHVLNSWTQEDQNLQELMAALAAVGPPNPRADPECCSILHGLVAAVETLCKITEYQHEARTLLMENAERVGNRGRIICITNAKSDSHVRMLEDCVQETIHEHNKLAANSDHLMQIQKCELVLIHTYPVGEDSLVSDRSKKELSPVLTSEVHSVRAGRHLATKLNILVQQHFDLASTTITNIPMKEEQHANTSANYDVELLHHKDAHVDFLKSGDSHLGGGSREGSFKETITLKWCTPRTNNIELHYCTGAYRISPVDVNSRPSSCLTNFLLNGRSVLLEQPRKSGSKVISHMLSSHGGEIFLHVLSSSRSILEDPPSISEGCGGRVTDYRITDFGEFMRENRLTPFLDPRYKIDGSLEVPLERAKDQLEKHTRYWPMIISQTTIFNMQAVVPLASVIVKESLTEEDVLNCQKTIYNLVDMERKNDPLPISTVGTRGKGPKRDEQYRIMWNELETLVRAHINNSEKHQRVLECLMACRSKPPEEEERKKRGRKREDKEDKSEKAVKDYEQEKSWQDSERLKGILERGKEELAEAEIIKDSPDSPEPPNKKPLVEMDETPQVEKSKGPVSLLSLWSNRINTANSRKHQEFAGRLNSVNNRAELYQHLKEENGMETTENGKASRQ
V5-SBP-INTS13 ΔCMBM (residues 1–648): residues 1-648 of Q9NVM9
GST-tagged INTS13 C-terminus (INTS13 C, residues 566–706): residues 566-706 of Q9NVM9
GST-INTS13 cleavage module-binding motif (CMBM, residues 649–694): residues 649-694 of Q9NVM9
UniProt Q96SY0: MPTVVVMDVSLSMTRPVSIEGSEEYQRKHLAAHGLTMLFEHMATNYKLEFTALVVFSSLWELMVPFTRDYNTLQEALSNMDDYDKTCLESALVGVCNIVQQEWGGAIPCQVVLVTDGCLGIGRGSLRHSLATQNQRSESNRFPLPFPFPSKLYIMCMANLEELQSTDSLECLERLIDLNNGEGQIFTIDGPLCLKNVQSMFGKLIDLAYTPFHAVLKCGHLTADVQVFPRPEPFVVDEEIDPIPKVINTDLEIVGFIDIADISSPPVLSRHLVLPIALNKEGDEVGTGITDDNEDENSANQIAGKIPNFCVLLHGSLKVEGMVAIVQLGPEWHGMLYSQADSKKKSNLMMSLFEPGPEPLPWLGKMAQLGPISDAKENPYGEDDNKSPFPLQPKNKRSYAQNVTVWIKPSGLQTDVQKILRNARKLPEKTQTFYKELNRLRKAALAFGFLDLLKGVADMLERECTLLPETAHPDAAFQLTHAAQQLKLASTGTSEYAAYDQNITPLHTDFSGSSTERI
V5-SBP-INTS14 VWA domain (VWA14, residues 1–210): residues 1-210 of Q96SY0
V5-SBP-INTS14ΔVWA (residues 211–518): residues 211-518 of Q96SY0
UniProt Q96HW7: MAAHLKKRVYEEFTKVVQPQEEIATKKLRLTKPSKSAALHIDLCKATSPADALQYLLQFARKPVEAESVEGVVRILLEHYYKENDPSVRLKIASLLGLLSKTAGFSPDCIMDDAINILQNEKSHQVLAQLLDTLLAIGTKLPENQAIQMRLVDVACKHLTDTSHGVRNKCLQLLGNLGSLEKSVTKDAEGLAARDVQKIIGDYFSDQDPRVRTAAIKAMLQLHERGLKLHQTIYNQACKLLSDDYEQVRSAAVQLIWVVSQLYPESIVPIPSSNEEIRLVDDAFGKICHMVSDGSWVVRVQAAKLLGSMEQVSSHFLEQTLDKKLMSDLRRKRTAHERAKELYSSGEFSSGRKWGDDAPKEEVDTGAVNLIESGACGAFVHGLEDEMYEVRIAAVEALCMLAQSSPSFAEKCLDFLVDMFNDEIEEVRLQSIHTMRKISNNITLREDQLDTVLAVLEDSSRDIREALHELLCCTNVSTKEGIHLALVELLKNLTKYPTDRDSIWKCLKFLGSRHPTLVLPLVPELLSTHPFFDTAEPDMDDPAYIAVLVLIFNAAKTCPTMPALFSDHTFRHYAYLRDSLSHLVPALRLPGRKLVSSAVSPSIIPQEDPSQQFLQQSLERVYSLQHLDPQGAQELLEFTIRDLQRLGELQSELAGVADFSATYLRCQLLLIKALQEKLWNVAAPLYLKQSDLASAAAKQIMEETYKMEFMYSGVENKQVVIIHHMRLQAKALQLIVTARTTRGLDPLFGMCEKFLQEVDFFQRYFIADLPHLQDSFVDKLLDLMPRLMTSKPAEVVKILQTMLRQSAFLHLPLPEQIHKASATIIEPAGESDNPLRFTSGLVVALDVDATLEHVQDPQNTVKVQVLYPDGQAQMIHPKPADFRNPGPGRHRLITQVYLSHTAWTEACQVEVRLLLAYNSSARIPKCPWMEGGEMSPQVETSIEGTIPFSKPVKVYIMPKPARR
UniProt Q9NV88: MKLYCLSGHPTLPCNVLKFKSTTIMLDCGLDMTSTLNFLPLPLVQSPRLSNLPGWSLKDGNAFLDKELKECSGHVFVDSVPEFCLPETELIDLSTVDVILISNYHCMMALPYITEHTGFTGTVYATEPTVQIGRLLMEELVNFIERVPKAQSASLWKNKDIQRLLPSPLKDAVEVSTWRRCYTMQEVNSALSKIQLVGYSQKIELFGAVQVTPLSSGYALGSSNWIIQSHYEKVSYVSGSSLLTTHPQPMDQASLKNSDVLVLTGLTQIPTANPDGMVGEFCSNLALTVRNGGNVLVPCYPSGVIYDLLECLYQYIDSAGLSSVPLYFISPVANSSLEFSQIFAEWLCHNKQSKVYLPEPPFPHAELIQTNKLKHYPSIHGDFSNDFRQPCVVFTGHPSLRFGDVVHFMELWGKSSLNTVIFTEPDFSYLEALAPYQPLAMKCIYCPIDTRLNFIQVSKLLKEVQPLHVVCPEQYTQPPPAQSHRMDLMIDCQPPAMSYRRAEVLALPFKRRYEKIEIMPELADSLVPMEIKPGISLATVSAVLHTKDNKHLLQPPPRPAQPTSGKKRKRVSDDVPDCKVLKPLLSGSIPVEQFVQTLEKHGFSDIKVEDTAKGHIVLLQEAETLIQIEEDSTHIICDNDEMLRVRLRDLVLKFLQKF
UniProt Q5TA45: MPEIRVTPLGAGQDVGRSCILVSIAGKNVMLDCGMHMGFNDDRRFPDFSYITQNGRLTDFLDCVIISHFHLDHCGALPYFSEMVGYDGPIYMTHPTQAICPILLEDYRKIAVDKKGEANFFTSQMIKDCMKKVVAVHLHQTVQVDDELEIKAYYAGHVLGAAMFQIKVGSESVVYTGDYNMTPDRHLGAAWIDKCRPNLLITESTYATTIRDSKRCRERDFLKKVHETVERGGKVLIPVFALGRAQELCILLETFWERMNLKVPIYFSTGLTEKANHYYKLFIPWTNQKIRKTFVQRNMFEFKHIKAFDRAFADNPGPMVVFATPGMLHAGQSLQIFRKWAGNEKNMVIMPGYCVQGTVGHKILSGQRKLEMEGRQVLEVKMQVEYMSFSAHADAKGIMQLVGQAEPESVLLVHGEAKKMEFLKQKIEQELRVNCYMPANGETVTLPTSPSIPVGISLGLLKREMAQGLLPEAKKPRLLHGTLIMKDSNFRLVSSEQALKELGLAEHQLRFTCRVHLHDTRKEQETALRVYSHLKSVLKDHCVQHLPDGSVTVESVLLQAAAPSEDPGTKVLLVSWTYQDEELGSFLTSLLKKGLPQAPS
UniProt Q9NVR2: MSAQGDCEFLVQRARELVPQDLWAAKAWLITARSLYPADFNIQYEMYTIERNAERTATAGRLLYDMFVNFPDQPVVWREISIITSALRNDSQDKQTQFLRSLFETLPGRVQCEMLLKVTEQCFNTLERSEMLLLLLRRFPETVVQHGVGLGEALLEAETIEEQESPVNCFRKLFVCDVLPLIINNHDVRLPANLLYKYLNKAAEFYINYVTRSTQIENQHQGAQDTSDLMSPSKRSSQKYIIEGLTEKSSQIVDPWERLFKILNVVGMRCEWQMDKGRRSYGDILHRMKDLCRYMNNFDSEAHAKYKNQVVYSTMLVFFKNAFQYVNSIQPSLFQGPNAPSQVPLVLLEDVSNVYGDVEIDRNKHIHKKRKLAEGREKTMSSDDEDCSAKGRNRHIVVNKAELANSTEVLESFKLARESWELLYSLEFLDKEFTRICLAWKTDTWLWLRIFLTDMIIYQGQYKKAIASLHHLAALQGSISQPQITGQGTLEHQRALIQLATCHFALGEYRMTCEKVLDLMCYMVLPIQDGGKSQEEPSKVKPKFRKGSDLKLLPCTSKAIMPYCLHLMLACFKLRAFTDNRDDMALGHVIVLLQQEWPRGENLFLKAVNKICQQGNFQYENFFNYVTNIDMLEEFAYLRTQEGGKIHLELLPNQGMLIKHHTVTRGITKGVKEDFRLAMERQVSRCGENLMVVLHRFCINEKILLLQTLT
UniProt Q9NVH2: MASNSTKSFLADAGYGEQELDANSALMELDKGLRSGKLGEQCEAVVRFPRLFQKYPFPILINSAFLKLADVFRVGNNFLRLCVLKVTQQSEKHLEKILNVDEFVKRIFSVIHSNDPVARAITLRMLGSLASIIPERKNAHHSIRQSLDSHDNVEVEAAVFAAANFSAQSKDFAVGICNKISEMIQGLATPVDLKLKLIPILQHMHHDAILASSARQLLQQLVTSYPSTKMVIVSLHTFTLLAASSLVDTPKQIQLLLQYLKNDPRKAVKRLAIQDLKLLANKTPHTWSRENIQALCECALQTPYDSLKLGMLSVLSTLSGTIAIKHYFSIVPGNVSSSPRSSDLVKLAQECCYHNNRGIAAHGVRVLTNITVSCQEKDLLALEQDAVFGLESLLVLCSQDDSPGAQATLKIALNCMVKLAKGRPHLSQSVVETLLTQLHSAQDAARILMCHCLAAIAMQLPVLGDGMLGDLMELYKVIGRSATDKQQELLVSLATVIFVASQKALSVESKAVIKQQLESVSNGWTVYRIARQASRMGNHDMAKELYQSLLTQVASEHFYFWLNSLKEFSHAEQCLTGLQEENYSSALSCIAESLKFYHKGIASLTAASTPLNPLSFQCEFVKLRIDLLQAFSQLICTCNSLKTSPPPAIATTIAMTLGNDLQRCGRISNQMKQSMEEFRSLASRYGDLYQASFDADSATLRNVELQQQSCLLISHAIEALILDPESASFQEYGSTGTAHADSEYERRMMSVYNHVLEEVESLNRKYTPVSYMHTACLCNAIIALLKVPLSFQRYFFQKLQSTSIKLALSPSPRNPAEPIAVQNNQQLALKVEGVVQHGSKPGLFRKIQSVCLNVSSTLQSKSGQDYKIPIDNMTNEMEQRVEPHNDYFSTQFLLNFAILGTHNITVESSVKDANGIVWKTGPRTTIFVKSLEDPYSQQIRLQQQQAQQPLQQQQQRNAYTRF

Tests used:
[1] = target: GST-INTS13 cleavage module-binding motif (CMBM, residues 649–694) (human) (UniProt Q9NVM9); experiment: pull-down; GST-INTS13 C-terminal constructs from E. coli lysates with insect cell extracts expressing cleavage module subunits, on glutathione sepharose; 50 mM HEPES pH 7.5, 200 mM NaCl, 2 mM DTT; Coomassie gel and Western blots
[2] = target: GST-tagged INTS13 C-terminus (INTS13 C, residues 566–706) (human) (UniProt Q9NVM9); experiment: as above
[3] = target: GST-tagged INTS14 VWA (1–210) (human) (UniProt Q96SY0); experiment: pull-down; GST-INTS14 VWA and MBP-INTS10 from E. coli lysates mixed with glutathione sepharose; lysis buffer 50 mM HEPES pH 7.5, 200 mM NaCl, 2 mM DTT; 30 min on ice
[4] = target: V5-SBP-INTS13 ΔCMBM (residues 1–648) (human) (UniProt Q9NVM9); experiment: pull-down; coprecipitation of endogenous proteins with an overexpressed V5-SBP-tagged bait from HEK293T cells on streptavidin sepharose beads; NET buffer (50 mM Tris–HCl pH 7.5, 150 mM NaCl, 0.1% Triton X-100, 10% glycerol, 2 mM DTT) with DNase I and RNase A; Western blot
[5] = target: V5-SBP-INTS14ΔVWA (residues 211–518) (human) (UniProt Q96SY0); experiment: as above
[6] = target: V5-SBP-tagged INTS14 (wild type) (human) (UniProt Q96SY0); experiment: as above
[7] = target: endogenous INTS14 (human (endogenous in HEK293T)) (UniProt Q96SY0); experiment: SEC; nuclear extract of HEK293T cells fractionated on Superose 6 10/300 GL in 50 mM HEPES–KOH pH 7.9, 500 mM KCl, 1.5 mM MgCl2, 0.2 mM EDTA, 10% glycerol, 0.5 mM DTT; even fractions analysed by Western blot
[8] = target: V5-SBP-tagged INTS13 (wild type) (human) (UniProt Q9NVM9); experiment: pull-down; coprecipitation of endogenous proteins with an overexpressed V5-SBP-tagged bait from HEK293T cells on streptavidin sepharose beads; NET buffer (50 mM Tris–HCl pH 7.5, 150 mM NaCl, 0.1% Triton X-100, 10% glycerol, 2 mM DTT) with DNase I and RNase A; Western blot
[9] = target: V5-SBP-INTS14 MIDAS pocket mutant D8A, S10A, S12A (human) (UniProt Q96SY0); experiment: pull-down; coprecipitation from HEK293T cells overexpressing both partners; V5-SBP-tagged bait on streptavidin sepharose beads, λN-HA-tagged prey; RIPA buffer (50 mM HEPES pH 7.6, 150 mM NaCl, 1% NP-40, 0.5% sodium deoxycholate, 2 mM DTT) with DNase I and RNase A; 1 h at 4 °C; Western blot
[10] = target: V5-SBP-INTS14ΔVWA (residues 211–518) (human) (UniProt Q96SY0); experiment: as above
[11] = target: V5-SBP-INTS14 VWA domain (VWA14, residues 1–210) (human) (UniProt Q96SY0); experiment: as above
[12] = target: V5-SBP-INTS14 MIDAS pocket mutant L11E, R15A (human) (UniProt Q96SY0); experiment: as above
[13] = target: V5-SBP-tagged INTS14 (wild type) (human) (UniProt Q96SY0); experiment: as above
[14] = target: V5-SBP-tagged INTS13 (wild type) (human) (UniProt Q9NVM9); experiment: as above

- binding [1]: no binding
Substance: 2S-INTS4 (from UniProt Q96HW7 1-963)

- binding [1]: no binding
Substance: 2S-INTS9 (from UniProt Q9NV88 1-658)

- binding [1]: no binding
Substance: 2S-INTS9–(2S)-INTS11 (from UniProt Q9NV88 1-658; Q5TA45 1-600) (complex)

- binding [1]: no binding
Substance: 2S-INTS11 (from UniProt Q5TA45 1-600)

- binding [2]: binds
Substance: INT cleavage module (His10-INTS4–INTS9–(2S)-INTS11) (from UniProt Q96HW7 1-963; Q9NV88 1-658; Q5TA45 1-600) (complex)

- binding [3]: binds
Substance: MBP-INTS10 (from UniProt Q9NVR2 1-710)

- binding [4]: no binding
Substance: endogenous INTS7 (from UniProt Q9NVH2 1-962)

- binding [5]: binds
- binding [6]: binds
- binding [7]: binds
Substance: endogenous INTS13 (from UniProt Q9NVM9 1-706)

- binding [8]: binds
Substance: endogenous INTS14 (from UniProt Q96SY0 1-518)

- binding [9]: no binding
- binding [10]: no binding
- binding [11]: binds
- binding [12]: no binding
Substance: λN-HA-tagged INTS10 (from UniProt Q9NVR2 1-710)

- binding [13]: binds
- binding [14]: binds
Substance: λN-HA-tagged INTS13 (wild type) (from UniProt Q9NVM9 1-706)

Substance: λN-HA-tagged INTS14 (wild type) (from UniProt Q96SY0 1-518)
- binding [13]: binds
- binding [14]: binds
